Hit rate of the full screen: of about 110,000 compounds, about 230 (0.21%) showed an effect of 50% or more. Some of the results follow.
target: DPAP1 (Plasmodium falciparum, UniProt Q8IIJ9); assay: primary screen, percent inhibition; read by cleavage of a fluorogenic dipeptide substrate; higher = more effect of the substance; set-up: species or system P. falciparum D10 trophozoite lysates; single well
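Further: 30 min substrate incubation versus DMSO and 10 µM JCP410 controls.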

DPAP1, sequence (Q8IIJ9 whole entry, looked up): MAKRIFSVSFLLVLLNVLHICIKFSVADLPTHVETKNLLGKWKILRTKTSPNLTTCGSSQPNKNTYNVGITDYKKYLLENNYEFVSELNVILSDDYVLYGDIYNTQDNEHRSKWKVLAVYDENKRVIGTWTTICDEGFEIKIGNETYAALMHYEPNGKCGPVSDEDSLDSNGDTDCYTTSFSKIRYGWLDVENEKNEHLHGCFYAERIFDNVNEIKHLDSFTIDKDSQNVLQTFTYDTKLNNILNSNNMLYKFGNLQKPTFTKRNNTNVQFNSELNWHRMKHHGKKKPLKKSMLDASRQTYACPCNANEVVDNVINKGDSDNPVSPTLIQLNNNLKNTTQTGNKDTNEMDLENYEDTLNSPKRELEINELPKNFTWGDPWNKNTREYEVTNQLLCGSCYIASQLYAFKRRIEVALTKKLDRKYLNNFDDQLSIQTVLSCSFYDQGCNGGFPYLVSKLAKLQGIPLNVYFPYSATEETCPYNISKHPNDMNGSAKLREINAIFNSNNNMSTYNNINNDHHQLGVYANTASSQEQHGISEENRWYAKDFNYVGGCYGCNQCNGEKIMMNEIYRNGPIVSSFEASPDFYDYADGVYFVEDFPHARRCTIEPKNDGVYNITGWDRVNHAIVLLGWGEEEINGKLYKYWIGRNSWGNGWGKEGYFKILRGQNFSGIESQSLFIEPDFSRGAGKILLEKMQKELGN

Compound | % Inhibition @ 10 uM
CN(Cc1ccccc1)c1nc2c(S(=O)(=O)c3ccc(Cl)cc3)nnn2c2ccsc12 | -7.14%
O=C(O)CNC(=O)/C=C/c1cccc(Cl)c1 | 2.35%
C/C(=N\CCCN(C)C)c1c(C(F)(F)F)nn(-c2nc3ccccc3s2)c1O | -2.89%
N=c1c(C(=O)NCc2ccco2)cc2c(=O)n3ccccc3nc2n1CCc1ccccc1 | 5.17%
CCCC[C@@H](/C=C/S(=O)(=O)c1ccccc1)NC(=O)C(CSCc1ccccc1)CSCc1ccccc1 | -6.98%
CCOc1ccc(C2C3=C(O)CCCC3=NC(C)=C2C(=O)Nc2ccccc2C)cc1 (stereo not shown) | -8.56%
Cn1c(SCc2ccccc2)nc2c(c1=O)C1(CCCC1)Cc1ccccc1-2 | -3.93%
CCOC(=O)c1c(C)[nH]c(C)c1S(=O)(=O)NCC(=O)N1CCN(Cc2ccccc2)CC1 | -0.166%
Cc1ccc(-n2ncc3c(NC4CCCCC4)ncnc32)c(C)c1 | 4.77%
O=C(Nc1ccc(Cl)cc1)Nc1ccccc1OC(F)(F)C(F)Cl (stereo not shown) | -5.23%
CC(=O)Nc1ccc(N2C(=O)CC(Sc3nc4c(cc3C#N)CCCCC4)C2=O)cc1 (stereo not shown) | 5.67%
O=C(Nc1nccs1)c1ccc(COc2ccc(Cl)cc2)cc1 | 1.67%
O=C(NCC1CCCO1)NC1CCCCC1 (stereo not shown) | -3.02%
CC(C)(C)c1ccc(C(=O)Nc2ncc(Cc3ccccc3)s2)cc1 | 4.95%
Cc1ccc(S(=O)(=O)N(CC(=O)NCc2cccnc2)c2cccc(Br)c2)cc1 | -4.93%
CC(=O)N1CCC(=O)c2cc3ccccc3cc21 | -9.24%
N#CC1=C(N)Oc2c(c(O)nc3ccccc23)C1c1ccccc1C(F)(F)F (stereo not shown) | 6.24%
CN1CCC(N(C)Cc2c(F)cccc2F)CC1 | 1.62%
CCc1ccc(S(=O)(=O)NCc2csc(-c3cccnc3)n2)s1 | -0.72%
C/C(Cl)=C/CSc1nc2c(c(=O)[nH]c(=O)n2C)n1C(C)C | -0.864%
COc1cccc(-c2nc(S)c3c(n2)Oc2cc(O)ccc2C3)c1OC | 4.6%
COc1ccc(C=C2C(=O)N(C)C(=O)N(C)C2=O)c(OC)c1 | 11.8%
COc1ccc(-c2cc3c(O)nncn3n2)cc1 | 3.3%
O=C(CN1CCCCC1)N1c2ccccc2Sc2ccccc21 | -5.13%
COc1ccc(N(CC(=O)Nc2ccccc2C)S(C)(=O)=O)cc1 | -0.796%

Compound | % Inhibition @ 10 uM
CC(C)N1C(=O)/C(=C\c2ccc(OCC(N)=O)c(Br)c2)S/C1=N/c1ccccc1 | 9.61%
CN(C)C(=O)c1ccc(N/C=C2/C(=O)NC(=O)N(c3ccc(Cl)cc3)C2=O)cc1 | 5.58%
COc1cccc(C2=NOC(C(=O)N3CCN(C(c4ccccc4)c4ccccc4)CC3)C2)c1 (stereo not shown) | 3.2%
O=C(NCCO)c1nnc(-c2cccc(Cl)c2)o1 | -0.0709%
COc1cccc(/C=c2\sc3nc(-c4cccc(Cl)c4)nn3c2=O)c1OC | -4.85%
C=CCC(N)(CC=C)c1ccc(C)cc1 | -0.759%
O=[N+]([O-])c1ccc(C(O)CNCc2ccccc2)cc1 (stereo not shown) | -2.59%
COc1ccc(/C=C/C(=O)c2cc3c(nc2C)CCCC3)cc1 | -5.96%
CCOc1cc2c(cc1OCC)C(CC(=O)O)N(C(=O)NCc1ccccc1)CC2 (stereo not shown) | -3.61%
COc1ccc(Cl)cc1C(=O)Nc1cccc(C)c1C | 4.49%
COc1ccc(NCc2ccc(OCC(=O)NC(C)(C)C)cc2)cc1 | -0.511%
Cc1cc(-c2ccc(C)c(S(=O)(=O)N(C)CCCc3ccco3)c2)on1 | -0.342%
O=C(Nc1cccc(C(=O)O)c1)/C(=C\c1ccc2c(c1)OCO2)NC(=O)c1ccccc1 | 2.38%
COc1ccc(-c2nc(CSCC(=O)NCCC3=CCCCC3)c(C)o2)cc1 | 2.37%
O=Cc1cn(Cc2cc(=O)n3ccccc3n2)c2ccccc12 | -6.4%
Fc1ccccc1CNC1CCN(CCc2ccccc2)CC1 | 1.37%
Cc1nn(C(C)C(=O)NCCN2CCOCC2)c(=O)c2c1sc1ccccc12 (stereo not shown) | -11.5%
O=C(CN1CCN(Cc2cccc(Cl)c2)C1=O)NCc1ccccn1 | -9.46%
Cn1c(=O)[nH]c(=O)c2c1nc(Br)n2CC(O)COc1ccccc1 (stereo not shown) | 3.06%
OC(COc1ccc2ccccc2c1)CN1CCN(c2ccccc2F)CC1 (stereo not shown) | -4.65%
COc1cc2c(c(OC)c1)C1(CC(C)(C)N2)CC(C)(C)Nc2cc(OC)cc(OC)c21 | -6.02%
COc1ccc(CNCc2ccc3c(c2)OCO3)c(OC)c1OC | -0.116%
CCCN1CCC(N2CCN(c3ccc(C(C)=O)cc3)CC2)CC1 | -5.2%
N=c1c2c(-c3ccccc3)c(-c3ccccc3)n(Cc3ccco3)c2ncn1CCCn1ccnc1 | -1.47%
